IC50 is the fitted dose that halves viability relative to control wells, and lower means more sensitive; where the fit passes the top or lowest dose, that dose stands as a limit. AUC sums up the same curve from the lowest dose to the 256-fold higher top dose: 1 means no effect, lower means more sensitive. Where the top dose is marked as inferred, it comes from the curve model; the source does not state it.
Compound: CCCCCCCCCCCC1=C(O)C(=O)C=C(O)C1=O [Embelin]
Assay: Viability of human cancer cell lines after 72 h of drug (GDSC screen)
Conditions: top dose 32 µM; top dose inferred
Experimental: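 Human cancer cell lines in 384-well plates, medium with 10% serum, drug for 72 h over a 256-fold dose range (nine 2-fold or five 4-fold steps up to the top dose). Adherent lines were fixed and stained with the nucleic acid dye Syto60, suspension lines read with resazurin; signal relative to control wells, capped at 0 and 100%. One two-parameter sigmoid per drug and line, fitted in a mixed model over all curves with the slope shared within a line.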

Row | Cell Line | AUC | IC50 [µM]
1 | NCI-H2110 (non-small cell lung carcinoma, adherent) | 0.79 | 14.7
2 | SAS (head and neck, adherent) | 0.82 | 21.1
3 | NCI-H1436 (small cell lung carcinoma, suspension) | 0.94 | > 32
4 | SKG-IIIa (cervix, adherent) | 0.883 | > 32
5 | HO-1-N-1 (head and neck, adherent) | 0.788 | 12.8
6 | PE/CA-PJ15 (head and neck, adherent) | 0.826 | 21.5
7 | HCC1806 (breast, adherent) | 0.85 | 21.3
8 | HCC-827 (lung adenocarcinoma, adherent) | 0.741 | 11
9 | LAMA-84 (chronic myeloid leukaemia, suspension) | 0.827 | 20
10 | KP-N-YS (neuroblastoma, adherent) | 0.871 | > 32
11 | MDST8 (large intestine, adherent) | 0.918 | > 32
12 | A204 (rhabdomyosarcoma, adherent) | 0.777 | 16.9
13 | CCK-81 (large intestine, adherent) | 0.931 | > 32
14 | SW1710 (bladder, adherent) | 0.777 | 13.3
15 | MDA-MB-415 (breast, adherent) | 0.831 | 30.7
16 | Detroit562 (head and neck, adherent) | 0.774 | 12
17 | HCC1395 (breast, adherent) | 0.843 | 29.9
18 | HMV-II (melanoma, adherent) | 0.661 | 6.23
19 | GB-1 (glioma, adherent) | 0.652 | 5.71
20 | no-10 (glioma, adherent) | 0.776 | 15.8
21 | YKG-1 (glioma, adherent) | 0.739 | 9.78
22 | huH-1 (liver, adherent) | 0.82 | 24.3
23 | WSU-NHL (lymphoid neoplasm, suspension) | 0.809 | 14.3
24 | ARH-77 (myeloma, suspension) | 0.825 | 18.3
25 | IGR-37 (melanoma, adherent) | 0.622 | 4.19
26 | MKN28 (stomach, adherent) | 0.689 | 6.87

Row | Cell Line | AUC | IC50 [µM]
27 | DU-4475 (breast, suspension) | 0.761 | 9.45
28 | 42-MG-BA (glioma, adherent) | 0.867 | > 32
29 | LCLC-97TM1 (large cell lung carcinoma, adherent) | 0.646 | 5.28
30 | BICR10 (head and neck, adherent) | 0.743 | 11.3
31 | NCI-H2228 (lung adenocarcinoma, adherent) | 0.845 | > 32
32 | D-542MG (glioma, adherent) | 0.554 | 2.9
33 | TOV-112D (ovary, adherent) | 0.665 | 5.78
34 | U-118-MG (glioma, adherent) | 0.857 | > 32
35 | MFH-ino (soft tissue, adherent) | 0.681 | 7.07
36 | WM-115 (melanoma, adherent) | 0.647 | 5.61
37 | U-698-M (B-cell leukaemia, suspension) | 0.819 | 18.2
38 | EKVX (lung adenocarcinoma, adherent) | 0.784 | > 32
39 | KMS-12-BM (myeloma, suspension) | 0.907 | 30.7
40 | SW780 (bladder, adherent) | 0.767 | 12.9
41 | HSC-39 (stomach, suspension) | 0.927 | > 32
42 | K5 (thyroid, adherent) | 0.86 | 25.1
43 | OE19 (oesophagus, adherent) | 0.885 | > 32
44 | SU-DHL-8 (B-cell lymphoma, suspension) | 0.604 | 3.77
45 | KYSE-410 (oesophagus, adherent) | 0.685 | 6.85
46 | NCI-H1693 (lung adenocarcinoma, adherent) | 0.943 | > 32
47 | C-4-I (cervix, adherent) | 0.797 | 16.5
48 | HCT-15 (large intestine, adherent) | 0.751 | 11.1
49 | JiyoyeP-2003 (Burkitt lymphoma, suspension) | 0.723 | 7.83
50 | MZ7-mel (melanoma, adherent) | 0.735 | 9.65
51 | SNU-387 (liver, adherent) | 0.861 | > 32
52 | H2461 (mesothelioma, adherent) | 0.777 | 16.2

Row | Cell Line | AUC | IC50 [µM]
53 | TT (thyroid, adherent) | 0.859 | > 32
54 | MOLM-13 (acute myeloid leukaemia, suspension) | 0.811 | 15.7
55 | EW-13 (Ewing sarcoma, suspension) | 0.726 | 9.52
56 | ECC10 (stomach, suspension) | 0.878 | > 32
57 | SBC-3 (small cell lung carcinoma, adherent) | 0.711 | 7.39
58 | KON (head and neck, adherent) | 0.639 | 4.81
59 | CMK (acute myeloid leukaemia, suspension) | 0.763 | 9.93
60 | NCI-H1770 (non-small cell lung carcinoma, suspension) | 0.762 | 10.1
61 | A172 (glioma, adherent) | 0.75 | 10.1
62 | HCC-15 (lung squamous cell carcinoma, adherent) | 0.809 | 22.7
63 | NU-DUL-1 (B-cell lymphoma, suspension) | 0.625 | 4.1
64 | Mewo (melanoma, adherent) | 0.81 | 21
65 | RERF-LC-MS (lung adenocarcinoma, adherent) | 0.811 | 17.5
66 | SCC-9 (head and neck, adherent) | 0.862 | > 32
67 | G-402 (soft tissue, adherent) | 0.757 | 14.5
68 | HeLa (cervix, adherent) | 0.728 | 8.59
69 | EW-3 (Ewing sarcoma, adherent) | 0.883 | > 32
70 | SIMA (neuroblastoma, adherent) | 0.683 | 7.02
71 | NCI-H596 (lung adenocarcinoma, adherent) | 0.797 | 20.5
72 | ES3 (Ewing sarcoma, adherent) | 0.776 | 13.4
73 | 451Lu (melanoma, adherent) | 0.795 | 14.2
74 | C-33-A (cervix, adherent) | 0.79 | 14.3
75 | AN3-CA (endometrium, adherent) | 0.683 | 6.87
76 | ST486 (Burkitt lymphoma, suspension) | 0.74 | 8.83

From the supplement of paper PMC4967469
